Literature values in patent publication US12502480B1, “System and method for administration of a substance” (Abusarah, Inc., priority 2025, dated 2025).

Conditions: inhalation of 0.35, 0.5 and 0.7 mg/kg; cited from earlier work

For `CN[C@]1(c2ccccc2Cl)CCCCC1=O` [esketamine, S-ketamine], the “dose proportionality of Cmax” value is listed as “approximately dose proportional”.
